Test results as given in paper PMC4336329 (PLoS ONE, 2015).
Screen size: about 310,000 compounds; about 14,000 (4.5%) showed an effect of 50% or more. The effect is printed as a negative number. The list shows a part of the results.

What follows are molecules tested against human ether-à-go-go-related gene (hERG) potassium channel (human, UniProt Q12809) (assay: primary screen, population patch clamp on CHO cells stably expressing hERG).
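Further: peak tail current of the secondary pulse compared with the same well before compound.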

Chain of human ether-à-go-go-related gene (hERG) potassium channel (Q12809 whole entry, looked up): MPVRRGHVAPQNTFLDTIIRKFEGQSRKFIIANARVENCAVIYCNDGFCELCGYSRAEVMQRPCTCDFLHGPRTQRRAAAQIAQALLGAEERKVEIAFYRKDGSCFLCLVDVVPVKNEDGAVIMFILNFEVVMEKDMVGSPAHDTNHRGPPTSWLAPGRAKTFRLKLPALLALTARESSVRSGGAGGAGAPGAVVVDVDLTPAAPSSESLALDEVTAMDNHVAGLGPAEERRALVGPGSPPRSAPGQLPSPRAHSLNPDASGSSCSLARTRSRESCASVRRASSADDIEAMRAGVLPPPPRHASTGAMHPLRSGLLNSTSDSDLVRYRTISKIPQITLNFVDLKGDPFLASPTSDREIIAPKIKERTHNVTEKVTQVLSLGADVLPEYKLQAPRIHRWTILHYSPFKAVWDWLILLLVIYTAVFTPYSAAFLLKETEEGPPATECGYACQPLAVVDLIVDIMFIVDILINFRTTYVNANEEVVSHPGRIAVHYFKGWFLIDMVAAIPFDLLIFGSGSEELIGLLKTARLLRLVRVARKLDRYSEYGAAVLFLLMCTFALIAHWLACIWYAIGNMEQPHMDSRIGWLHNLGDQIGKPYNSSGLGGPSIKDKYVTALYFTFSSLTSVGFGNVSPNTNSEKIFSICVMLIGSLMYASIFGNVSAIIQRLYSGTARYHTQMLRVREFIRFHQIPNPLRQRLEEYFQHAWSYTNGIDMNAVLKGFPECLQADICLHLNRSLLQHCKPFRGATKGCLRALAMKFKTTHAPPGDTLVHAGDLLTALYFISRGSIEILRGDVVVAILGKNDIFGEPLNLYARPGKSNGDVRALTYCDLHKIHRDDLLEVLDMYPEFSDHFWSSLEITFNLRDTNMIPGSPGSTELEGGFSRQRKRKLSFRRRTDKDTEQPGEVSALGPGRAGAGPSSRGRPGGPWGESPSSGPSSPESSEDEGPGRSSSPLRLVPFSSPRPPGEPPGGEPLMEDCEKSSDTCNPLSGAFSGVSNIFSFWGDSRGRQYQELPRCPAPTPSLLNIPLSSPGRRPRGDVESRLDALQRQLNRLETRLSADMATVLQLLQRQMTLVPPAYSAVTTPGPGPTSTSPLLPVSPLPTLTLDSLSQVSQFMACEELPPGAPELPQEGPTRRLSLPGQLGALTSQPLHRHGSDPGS

Going from Cn1c(SCC(=O)Nc2ccc(Cl)cn2)nnc1C1CC1 to O=C(CSc1nnc(CNc2ccc(F)cc2)n1Cc1ccco1)NC1CC1, the “hERG current change (%, negative = inhibition) at 10uM” value falls from -3.25% to -14.4%.

Compared with CCOC(=O)c1ccc(Nc2ncnc3ccccc23)cc1.Cl, CN(C)c1ccc(Nc2nc(N)c3ccccc3n2)cc1.Cl is lower in “hERG current change (%, negative = inhibition) at 10uM” value: 14.5% for the first, -34.8% for the second.

First: Cc1occc1C(=O)NNC(=O)c1ccc(S(=O)(=O)N(C)C)cc1
Second: COc1ccc(NC(=O)C(C)NS(=O)(=O)c2ccc(NC(C)=O)cc2)cc1Cl (stereo not shown)
The “hERG current change (%, negative = inhibition) at 10uM” value of the first is higher: 9.03% for the first, -6.35% for the second.

Compared with Cc1ccc(-c2nc3cccnc3o2)cc1NC(=O)COc1ccc(Cl)cc1C, Cc1nc(SCC(=O)Nc2ccc(C)c(F)c2)c2oc3ccccc3c2n1 is lower in “hERG current change (%, negative = inhibition) at 10uM” value: 5.9% for the first, 4.4% for the second.

Going from O=C(c1ccc(CNS(=O)(=O)c2cccc(C(F)(F)F)c2)cc1)N1CCOCC1 to CCOC(=O)N1CCN(C(=O)c2cccc(S(=O)(=O)Nc3ccccc3Cl)c2)CC1, the “hERG current change (%, negative = inhibition) at 10uM” value rises from -6.38% to -1.78%.

Compared with CCOCC(=O)NC1CCSC1=O (stereo not shown), O=C(COC(=O)c1ccccc1Br)NC1CCCC1 is lower in “hERG current change (%, negative = inhibition) at 10uM” value: 24.1% for the first, 7.33% for the second.

Compared with CCc1ccc(NC(=O)NCC2CCN(Cc3cccc(Cl)c3)CC2)cc1, Cc1cc(=O)oc2cc(OCC(=O)Nc3ccc(CN4CCOCC4)cc3)ccc12 is higher in “hERG current change (%, negative = inhibition) at 10uM” value: -82.9% for the first, 3.15% for the second.

Going from O=C(NC(=S)Nc1ccc2c(c1)OCCO2)c1cccc(Br)c1 to O=C(Nc1cccc(F)c1)c1cccnc1, the “hERG current change (%, negative = inhibition) at 10uM” value rises from -1.58% to 3.96%.

First: O=C(O)C(=O)O.O=C(c1cccs1)N1CCN(CCCc2ccccc2)CC1
Second: CCOC(=O)C1CCCN(C(=O)c2ccc3oc(CCc4ccccc4)nc3c2)C1 (stereo not shown)
The “hERG current change (%, negative = inhibition) at 10uM” value of the first is lower: -64.5% for the first, -27.7% for the second.

Compared with CCN1C(=O)c2ccccc2S(=O)c2ccc(C(=O)NCc3ccccn3)cc21 (stereo not shown), COc1ccc(-c2nn(CCC#N)cc2C(=O)NCc2ccccc2)cc1[N+](=O)[O-] is lower in “hERG current change (%, negative = inhibition) at 10uM” value: 0.339% for the first, -59.7% for the second.

Going from Cn1c(=O)n(C)c2cc(NC(=O)Cc3ccccc3[N+](=O)[O-])ccc21 to Cn1c(CCNS(=O)(=O)c2ccccc2)nc2cc([N+](=O)[O-])ccc21, the “hERG current change (%, negative = inhibition) at 10uM” value falls from 13.9% to -13.6%.

Going from Cc1ccc(/C=C2/N=C(c3ccccc3)NNC2=O)cc1 to Clc1ccccc1-c1nc(-c2ccccc2)n[nH]1, the “hERG current change (%, negative = inhibition) at 10uM” value rises from -14.4% to -5.74%.

Compared with COc1ccc(/C=C/c2c([N+](=O)[O-])c(=O)n(C)c(=O)n2C)c(OC)c1OC, COc1ccc(-c2nnc(N(C)C(=O)c3ccco3)s2)cc1OC is lower in “hERG current change (%, negative = inhibition) at 10uM” value: 13% for the first, 10.6% for the second.

Going from Cc1nc(N2CCCCC2)sc1C(=O)c1cccc([N+](=O)[O-])c1 to CC(=O)Nc1ccc(C(=O)OCC(=O)c2cccc([N+](=O)[O-])c2)cc1, the “hERG current change (%, negative = inhibition) at 10uM” value rises from -24.4% to 4.66%.

First: O=C(/C=C/Nc1cccc(F)c1)c1ccco1
Second: O=C(NCCc1ccccc1)/C(=C\c1ccccc1)NC(=O)c1ccco1
The “hERG current change (%, negative = inhibition) at 10uM” value of the first is higher: -0.758% for the first, -21.4% for the second.

First: COc1ccccc1-c1nc(C(F)(F)F)c(OC)o1
Second: Cn1ccc(-c2cc(C(=O)O)c3ccccc3n2)n1
The “hERG current change (%, negative = inhibition) at 10uM” value of the first is lower: -7.54% for the first, 20.6% for the second.

Compared with Cc1ccccc1N1CC(C(=O)NC2CCCC2)CC1=O (stereo not shown), Cc1ccc(C(C(=O)NC2CCCCC2)N2CCCC2)cc1 (stereo not shown) is lower in “hERG current change (%, negative = inhibition) at 10uM” value: 10.3% for the first, -11.5% for the second.

First: Cc1cccc(-c2nnc(NC(=O)c3ccc(N4C(=O)CCC4=O)cc3)s2)c1
Second: C=CCn1c(=NC(=O)c2cccc(N3C(=O)CCC3=O)c2)sc2cccc(OC)c21
The “hERG current change (%, negative = inhibition) at 10uM” value of the first is higher: 9.06% for the first, -5.04% for the second.

Going from CCCn1cc(C(=O)OCC)c(=O)c2cc(F)c(F)cc21 to CCN(C(=O)c1cn(C)c(=O)c2ccccc12)c1ccccc1F, the “hERG current change (%, negative = inhibition) at 10uM” value rises from 2.11% to 5.71%.

Compared with CCCCc1n[nH]c2c1/C(=N/OCC)CC(C)(C)C2, CCOC(=O)CSc1n[nH]c(NC(=O)c2ccccc2)n1 is lower in “hERG current change (%, negative = inhibition) at 10uM” value: 11.7% for the first, 4.71% for the second.

First: CC(=O)NS(=O)(=O)c1ccc(NC(=O)CSc2ccc(Cl)cc2)cc1
Second: COc1ccc(NC(=O)CSc2nccn2-c2cccc(OC)c2)cc1
The “hERG current change (%, negative = inhibition) at 10uM” value of the first is lower: 6.91% for the first, 11.4% for the second.

Compared with O=C1N(Cc2cccc(Cl)c2)C[C@@H]2C[C@@H](c3ccsc3)N3CCC[C@@]123, O=C(c1cc(-c2cccc(O)c2)on1)N1CCc2ccccc2C1 is higher in “hERG current change (%, negative = inhibition) at 10uM” value: -60.1% for the first, -25.1% for the second.

First: C=CC1=C(C(=O)O)N2C(=O)[C@@H](NC(=O)/C(=N/OCC(=O)O)c3csc(N)n3)[C@H]2SC1.O
Second: COc1ccccc1NC(=O)C1CCN(C(=O)C2CC(=O)N(c3ccc(C)cc3)C2)CC1 (stereo not shown)
The “hERG current change (%, negative = inhibition) at 10uM” value of the first is higher: 18.9% for the first, -9.15% for the second.

Going from c1ccc(-n2ncc3c2ncn2cnnc32)cc1 to c1ccc(-c2nnnc3ccccc23)cc1, the “hERG current change (%, negative = inhibition) at 10uM” value rises from 9.5% to 10.6%.

Compared with CCCN1CCC(=O)N([C@H](CSc2ccc(Br)cc2)c2ccccc2)CC1, Cn1cc(CN(Cc2ccccc2)C[C@@H]2CCC(=O)N2)c(-c2ccccc2F)n1 is higher in “hERG current change (%, negative = inhibition) at 10uM” value: -76.2% for the first, -10.4% for the second.

First: Cl.O=C(COc1ccc(F)cc1)NCCN1CCCC1
Second: CCN(CC)C(=S)SCC(=O)c1ccc(F)cc1
The “hERG current change (%, negative = inhibition) at 10uM” value of the first is lower: -11.2% for the first, -7.58% for the second.

Compared with O=C(CNC(=O)c1sc2ccccc2c1Cl)Nc1ccccc1F, C[C@H](NC(=O)c1ccccc1Cl)C(=O)OCCOc1ccc(Cl)cc1 is higher in “hERG current change (%, negative = inhibition) at 10uM” value: -6.72% for the first, -1.62% for the second.

Going from CC1CCN(Cc2cc(=O)oc3cc4c(cc23)CCCC4)CC1 to COc1ccc(CC(=O)N2CCC(n3nccc3NC(=O)C3CC3)CC2)cc1, the “hERG current change (%, negative = inhibition) at 10uM” value rises from -6.92% to 13.7%.

Going from COc1ccc(-c2nc3ncccc3n2O)cc1 to C(=N\Nc1nc2ccccc2[nH]1)/c1cccc2cccnc12, the “hERG current change (%, negative = inhibition) at 10uM” value falls from 22.1% to 1.65%.

Going from Cl.N=c1n(Cc2ccc(Cl)cc2)c2ccccc2n1CC(O)c1ccco1 (stereo not shown) to O=C(Cn1ncn2c(cc3ccccc32)c1=O)NCCc1cccs1, the “hERG current change (%, negative = inhibition) at 10uM” value rises from -64.1% to 8%.

First: COCCN(C(=O)COC(=O)c1ccc(C)o1)c1c(N)n(Cc2ccccc2)c(=O)[nH]c1=O
Second: CCC(C(=O)NCc1ccc(F)cc1)n1nc(C)n2c(cc3occc32)c1=O (stereo not shown)
The “hERG current change (%, negative = inhibition) at 10uM” value of the first is higher: 17.2% for the first, 7.09% for the second.

Going from COc1ccc(N=C(N)N=C(N)N)c(OC)c1 to COc1ccc(CNC(=O)/C=C/C(=O)O)cc1OC, the “hERG current change (%, negative = inhibition) at 10uM” value falls from 4.57% to -8.65%.

Going from COC(=O)c1ccc(CN2CCN(CC=C(C)C)C(CCO)C2)cc1 (stereo not shown) to CCN1CCN(c2ccc(S(=O)(=O)N3CCOCC3)cc2NC(=O)CCC(C)C)CC1, the “hERG current change (%, negative = inhibition) at 10uM” value falls from -7.32% to -26.3%.

First: O=C1CC(=O)CC(c2ccccc2)C1
Second: O=C1Nc2cccnc2Sc2ccccc21
The “hERG current change (%, negative = inhibition) at 10uM” value of the first is lower: 2.5% for the first, 8.7% for the second.

First: O=C(NCc1cccnc1)NC1(C(F)(F)F)Oc2ccccc2O1
Second: O=C(NCc1cccc(C(F)(F)F)c1)C1CC(c2c(Cl)cccc2Cl)=NO1 (stereo not shown)
The “hERG current change (%, negative = inhibition) at 10uM” value of the first is lower: -9.07% for the first, -7.02% for the second.

First: COc1cccc(N2CCN(c3ccc4nnc(CCC(=O)Nc5ccccc5OC)n4n3)CC2)c1
Second: O=C(c1ccc(N2CCN(C(=O)c3ccc(F)c(F)c3)CC2)cc1)c1cccc(F)c1
The “hERG current change (%, negative = inhibition) at 10uM” value of the first is lower: -62.6% for the first, -16.7% for the second.

First: Cc1cc(CNC(=S)Nc2ccc(Br)cc2Cl)nn1C
Second: Cc1cc(C)c(NC(=O)COC(=O)CSc2ccc(Br)cc2C)c(C)c1
The “hERG current change (%, negative = inhibition) at 10uM” value of the first is lower: -12.9% for the first, 7.14% for the second.

Going from Nc1nc(-c2ccco2)cs1 to O=C(NCc1ccc(F)cc1)c1nc(-c2cccs2)no1, the “hERG current change (%, negative = inhibition) at 10uM” value falls from 9.88% to -5.3%.

First: O=C1C(Nc2ccccc2)=CC(c2ccc(O)cc2)N1c1ccccc1 (stereo not shown)
Second: Nc1nonc1-n1nnc(C(=O)N/N=C/c2ccc(OCc3ccccc3)cc2)c1CNc1ccccc1
The “hERG current change (%, negative = inhibition) at 10uM” value of the first is higher: 24.5% for the first, 23.9% for the second.

Going from CNC(=O)Nc1ccc(C(=O)N/N=C\C23CC[C@@H](O)CC2(O)CC[C@@H]2[C@@H]3CCC3(C)C(C4=CC(=O)OC4)CCC23O)cc1 (stereo partly shown) to Cc1ccc2oc(/N=C(\N)NC(=O)C3CC3)nc2c1, the “hERG current change (%, negative = inhibition) at 10uM” value falls from 11.9% to 5.12%.

Compared with CC[n+]1c(P(=O)([O-])c2ccccc2)[nH]c2ccccc21, Cc1ccc(S(=O)(=O)Nc2nc3ccccc3s2)cc1[N+](=O)[O-] is higher in “hERG current change (%, negative = inhibition) at 10uM” value: -13% for the first, 4.99% for the second.

Compared with COc1ccc(OC)c(N(CC(=O)NCc2cccnc2)S(C)(=O)=O)c1, Cc1ccc2cc(CN(Cc3ccco3)S(=O)(=O)c3c(C)ccc4nsnc34)c(=O)[nH]c2c1 is lower in “hERG current change (%, negative = inhibition) at 10uM” value: 9.95% for the first, 2.82% for the second.

Compared with N/C(=N\OC(=O)CCC1CCCCC1)c1cccnc1, CCn1c(SCC(=O)N2CCCCC2C)nc2ccsc2c1=O (stereo not shown) is higher in “hERG current change (%, negative = inhibition) at 10uM” value: -20.6% for the first, -11.5% for the second.

Compared with Cc1c(NC(=O)c2cc3nc(-c4ccc(Br)cc4)cc(C(F)(F)F)n3n2)c(=O)n(-c2ccccc2)n1C, O=C(CC(n1cncn1)C(Cl)(Cl)Cl)c1ccc([N+](=O)[O-])cc1 (stereo not shown) is lower in “hERG current change (%, negative = inhibition) at 10uM” value: -33.9% for the first, -48.8% for the second.
